The test system of the data set is ATP. The data set can be described thus: switch fluorescence ratio, 500 uM ATP over buffer (Cy3 cluster intensity, sum of 5 cycles each) (fold (ratio)); higher = stronger signal-on switching upon ATP binding; sequences stand for … in TCGTCGGCAGCGTCAGATGTGTATAAGAGACAGTTTTTTTTTTTTTTTTTTTTTTTTT…TC. The settings on record: aptamer strand: ATP DNA aptamer (quencher-CACCTGGGGGAGTATTGCGGAGGAAGG + anchor), 100 nM annealed; ATP concentration: 500 uM; one replicate. A digest of the protocol:
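Imaging in selection buffer was followed by imaging after 15 min with 500 uM ATP at 22 °C, for Cy3-labelled switching-strand clusters annealed to 100 nM quencher-labelled ATP aptamer on a modified Illumina MiSeq flow-cell. Five of these buffer/ATP cycles ran, separated by NaOH stripping and re-annealing. The fluorescence ratio per cluster is summed target-cycle over summed buffer-cycle Cy3 intensity, averaged per switch-domain sequence; clusters outside 100-1000 RFU were removed.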

Sequences with one replicate were seen in a single cluster, so their values are uncertain.
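Note: ATP exposure 15 min at 22 °C before imaging.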

Take AATAGTGAAT: the switch fluorescence ratio was 0.979. In the case of ATAAGTAGAT, the switch fluorescence ratio was found to be 0.987.

As for CAAGTCAGAA, the switch fluorescence ratio amounted to 1.03. The same measure for GTGAATATAG: 0.964; for TCCCCGTAT: 0.999. In the case of CTTCGAAACC it was 1.09. The same measure for ATAGGGTCTT: 0.975; for CTGTTAACAT: 1.01. In the case of TACCGGCCCA, the switch fluorescence ratio was 1.03. In the case of TGCTTATGAA it was 1.03; in that of TGTGTTTTA, 1.02; in that of GATGAGTTGG, 0.97. The same measure for CTTAAGACGA: 1.03. In the case of AGTACGGGTG it was 1.1; in that of ACTCCACGCT, 1.26. For GTTAGTCATC, the switch fluorescence ratio turned out to be 0.978. As to CGTGTCTTA, the switch fluorescence ratio turned out to be 1.04. The same measure for TTAGTTCGCA: 1.06; for CTCACGAGGT: 1.03. In the case of TTTGACCGC it was 1.09; in that of TCACAACTGG, 1.02. The same measure for CGGGGTCTAG: 1.01; for ACGGCCTCGG: 1.03; for GCTATTTTGT: 0.986. Regarding CAGTAAAG, the switch fluorescence ratio amounted to 0.971. The same measure for AAACCAGGGA: 1.08; for CTCTTTTGAA: 0.914. Consider CCGTTCATTT, for which the switch fluorescence ratio stood at 0.97. The same measure for GGTCCCAGGT: 3.38. For the sequence CGTTGTGAAA, the switch fluorescence ratio was found to be 1.

For the sequence TGCTATTGCG, the switch fluorescence ratio was found to be 0.963. Take AATAGTTCAC: the switch fluorescence ratio is 0.959. In the case of AGGTTCTTAA it was 0.991; in that of CAAAGTTTGT, 0.976. The same measure for CGGTTGATTA: 0.965; for CGAGCTAATG: 1.15. Regarding TGAAATAGTT, the switch fluorescence ratio was 0.962. Regarding AATGTAGCGG, the switch fluorescence ratio was found to be 0.978.

As for TCAACCTGTG, the switch fluorescence ratio stood at 1.06. As for TGTTAGCCCT, the switch fluorescence ratio amounted to 1. The same measure for TAACGGGTAC: 1.55. The same measure for AGCATTTATT: 1.03; for GGTTAACCGC: 0.998. The same measure for ACGACAATAA: 3.3; for CTCAATGGGA: 2.19; for TTGTTTAGAA: 0.973. With GGAACCGATC, the switch fluorescence ratio was 1.98.

Consider TATTCGGAGG, for which the switch fluorescence ratio came to 0.951. The same measure for AATGTTGAGA: 1.01; for TCCATTTGTA: 0.969. In the case of AGGCCACCTC it was 1.03; in that of CTTGTGATTA, 0.978. In the case of ACCAATCCTA, the switch fluorescence ratio worked out at 1.03. The same measure for ACCGTAAGCC: 1.34; for ACTCCGGGGC: 2.05.

As for CTTTGGGTTC, the switch fluorescence ratio is 0.998. The same measure for CTCTCATATA: 1.04; for ACTCAAATGT: 1.04; for AACTAGTGCT: 0.953. As to ATGAGGAACA, the switch fluorescence ratio is 0.974. In the case of GTCCGTATGA it was 1.03; in that of GTCACAACTG, 1.08; in that of TGCCTCAGTC, 1.08. In the case of GAGTAGCGCT it was 0.986. As to TGCGTGGAGA, the switch fluorescence ratio was determined as 1.07. On to ATCGATTCCG, for which the switch fluorescence ratio is 1.03. With ACTTGAACGA, the switch fluorescence ratio turned out to be 1.06.

For GCGCGAGGCA, the switch fluorescence ratio was 1.06. In the case of CGTCAGGCTA it was 1.08. The same measure for GGCGACTATC: 1.04; for AGTCCTAAGG: 0.958; for AAGTAAGCG: 0.985. In the case of GGTCGTCTAG it was 0.975. For AATTAAGGGC, the switch fluorescence ratio was found to be 0.989. In the case of TAGTATGTGC it was 0.924; in that of TCATTTCGTG, 0.97; in that of GAATTTGTCG, 1.02.

As for AAAAAATATG, the switch fluorescence ratio was found to be 1.03.

As to CTTTGGGAGA, the switch fluorescence ratio was determined as 1. The same measure for TAGGGGATTA: 0.959; for CCGATCTATC: 2.08; for CTCAGGCTTT: 1.03. As to AGTGATTGGC, the switch fluorescence ratio came to 0.976. Turning to AACAGTCAGC, the switch fluorescence ratio amounted to 1.04.

Turning to GAGATTAACA, the switch fluorescence ratio is 0.939. The same measure for AACCTCCAAG: 1.18. Take AGGCCGTTTT: the switch fluorescence ratio is 0.99. The same measure for CTTCGGTACC: 1.09. The same measure for CTGGGCCAGG: 1.05; for TAATATTAAA: 0.985.

Turning to ATCTACGCTG, the switch fluorescence ratio came to 1.11. In the case of TTCTAATAGG it was 1.04; in that of TTGTTATAAG, 0.963. On to TCTAATTGTA, for which the switch fluorescence ratio stood at 0.94. As for CCCTCTATAA, the switch fluorescence ratio turned out to be 1.12. In the case of TCAATAGGTA it was 0.986; in that of GTGCGCCGAA, 0.943; in that of AAATGTGCTA, 1.01. On to GGGGCGAAGT, for which the switch fluorescence ratio was 0.985. Turning to AAGAATGTGG, the switch fluorescence ratio is 0.964. In the case of AACATTGAAA it was 0.998; in that of TTCGAGGTCG, 1.04. Regarding GTCGTGCTTC, the switch fluorescence ratio amounted to 0.998.

On to GCTTACAGC, for which the switch fluorescence ratio is 0.992. The same measure for ACTAGAAGGA: 1.07. Take AATATCCGTG: the switch fluorescence ratio amounted to 0.969. The same measure for TCTGATATCT: 0.987. The same measure for ATTTCATGTT: 0.984; for ATGGTGGAGC: 1.02; for TCAAGTCTTT: 0.973.

As for GGTGTAAAGT, the switch fluorescence ratio was found to be 0.998. The same measure for GGGGACCCAG: 0.991. The same measure for GTTCAAAACG: 1.02. In the case of ACTTTGTTAA it was 0.952; in that of GTCCTTGAGT, 0.985; in that of CTTACGGCTA, 1.05.

On to TAAAACTATG, for which the switch fluorescence ratio was found to be 1.01. The same measure for TGCGTACATA: 1.08; for TAAGTTTAGA: 1.04. Turning to CTAAGGAGAA, the switch fluorescence ratio came to 0.949.

The record behind these values is the supplement of paper PMC10126150.
